# Source: the supplement of paper PMC8728848
# This is one part of the list.
# Key:
# Experiment in all cases: glycan array binding signal (z-score within array); higher = stronger binding
# Conditions in all cases: glycan notation: IUPAC condensed, linker removed; mutation: N224Q
# [1] = biological target: Fuc(a1-3)[Gal(b1-4)]GlcNAc(b1-3)Gal(b1-3)[Fuc(a1-4)]GlcNAc
# How it was run: (§1)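 Arrays were curated from the Consortium for Functional Glycomics database, 3228 in total, and kept only where the protein sequence was available. Binding is expressed as a within-array Z-score. This score was averaged across arrays of the same protein sequence at different concentrations or buffers and across linkers, and negative values can be read as non-binding.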
# [2] = biological target: Fuc(a1-3)[Gal(b1-4)]GlcNAc(b1-3)Gal(b1-4)[Fuc(a1-3)]GlcNAc
# How it was run: as §1
# [3] = biological target: Fuc(a1-3)[Gal(b1-4)]GlcNAc(b1-3)Gal(b1-4)[Fuc(a1-3)]GlcNAc(b1-3)Gal(b1-4)[Fuc(a1-3)]GlcNAc
# How it was run: as §1
# [4] = biological target: Fuc(a1-3)[Gal(b1-4)]GlcNAc(b1-3)GalNAc
# How it was run: as §1
# [5] = biological target: Fuc(a1-3)[Gal(b1-4)]GlcNAc(b1-6)GalNAc
# How it was run: as §1
# [6] = biological target: Fuc(a1-3)[Gal(b1-4)]GlcNAc(b1-6)[Gal(b1-3)GlcNAc(b1-3)]Gal(b1-4)Glc
# How it was run: as §1
# [7] = biological target: Fuc(a1-3)[Gal(b1-4)]GlcNAc6S
# How it was run: as §1
# [8] = biological target: Fuc(a1-3)[Gal3S(b1-4)]Glc
# How it was run: as §1
# [9] = biological target: Fuc(a1-3)[Gal3S(b1-4)]GlcNAc
# How it was run: as §1
# [10] = biological target: Fuc(a1-3)[Gal3S(b1-4)]GlcNAc6S
# How it was run: as §1
# [11] = biological target: Fuc(a1-3)[GalNAc(b1-4)]GlcNAc
# How it was run: as §1
# [12] = biological target: Fuc(a1-3)[GalNAc(b1-4)]GlcNAc6S
# How it was run: as §1
# Fuc(a1-4)GlcNAc = biological target: Fuc(a1-4)GlcNAc
# How it was run: as §1
# Fuc(b1-3)GlcNAc = biological target: Fuc(b1-3)GlcNAc
# How it was run: as §1
# Gal(a1-2)Gal = biological target: Gal(a1-2)Gal
# How it was run: as §1
# Gal(a1-3)Gal = biological target: Gal(a1-3)Gal
# How it was run: as §1
# Gal(a1-3)Gal(b1-3)GlcNAc = biological target: Gal(a1-3)Gal(b1-3)GlcNAc
# How it was run: as §1
# [13] = biological target: Gal(a1-3)Gal(b1-3)GlcNAc(b1-2)Man
# How it was run: as §1
# [14] = biological target: Gal(a1-3)Gal(b1-3)GlcNAc(b1-2)Man(a1-3)[Gal(a1-3)Gal(b1-3)GlcNAc(b1-2)Man(a1-6)]Man(b1-4)GlcNAc(b1-4)GlcNAc
# How it was run: as §1
# [15] = biological target: Gal(a1-3)Gal(b1-3)GlcNAc(b1-3)GalNAc
# How it was run: as §1
# [16] = biological target: Gal(a1-3)Gal(b1-3)GlcNAc(b1-6)GalNAc
# How it was run: as §1
# [17] = biological target: Gal(a1-3)Gal(b1-3)[Fuc(a1-4)]GlcNAc(b1-2)Man(a1-3)[Gal(a1-3)Gal(b1-3)[Fuc(a1-4)]GlcNAc(b1-2)Man(a1-6)]Man(b1-4)GlcNAc(b1-4)GlcNAc
# How it was run: as §1
# Gal(a1-3)Gal(b1-4)Glc = biological target: Gal(a1-3)Gal(b1-4)Glc
# How it was run: as §1
# Gal(a1-3)Gal(b1-4)GlcNAc = biological target: Gal(a1-3)Gal(b1-4)GlcNAc
# How it was run: as §1
# [18] = biological target: Gal(a1-3)Gal(b1-4)GlcNAc(b1-2)Man
# How it was run: as §1
# [19] = biological target: Gal(a1-3)Gal(b1-4)GlcNAc(b1-2)Man(a1-3)[Gal(a1-3)Gal(b1-4)GlcNAc(b1-2)Man(a1-6)]Man(b1-4)GlcNAc(b1-4)GlcNAc
# How it was run: as §1
# [20] = biological target: Gal(a1-3)Gal(b1-4)GlcNAc(b1-3)GalNAc
# How it was run: as §1
# [21] = biological target: Gal(a1-3)Gal(b1-4)GlcNAc(b1-6)GalNAc
# How it was run: as §1
# [22] = biological target: Gal(a1-3)Gal(b1-4)[Fuc(a1-3)]GlcNAc
# How it was run: as §1
# [23] = biological target: Gal(a1-3)Gal(b1-4)[Fuc(a1-3)]GlcNAc(b1-2)Man(a1-3)[Gal(a1-3)Gal(b1-4)[Fuc(a1-3)]GlcNAc(b1-2)Man(a1-6)]Man(b1-4)GlcNAc(b1-4)GlcNAc
# How it was run: as §1
# Gal(a1-3)GalNAc = biological target: Gal(a1-3)GalNAc
# How it was run: as §1
# [24] = biological target: Gal(a1-3)[Gal(a1-4)]Gal(b1-4)GlcNAc
# How it was run: as §1
# [25] = biological target: Gal(a1-4)Gal(b1-3)GlcNAc(b1-2)Man(a1-3)[Gal(a1-4)Gal(b1-3)GlcNAc(b1-2)Man(a1-6)]Man(b1-4)GlcNAc(b1-4)GlcNAc
# How it was run: as §1
# Gal(a1-4)Gal(b1-4)Glc = biological target: Gal(a1-4)Gal(b1-4)Glc
# How it was run: as §1
# Gal(a1-4)Gal(b1-4)GlcNAc = biological target: Gal(a1-4)Gal(b1-4)GlcNAc
# How it was run: as §1
# [26] = biological target: Gal(a1-4)Gal(b1-4)GlcNAc(b1-2)Man(a1-3)[Gal(a1-4)Gal(b1-4)GlcNAc(b1-2)Man(a1-6)]Man(b1-4)GlcNAc(b1-4)GlcNAc
# How it was run: as §1
# [27] = biological target: Gal(a1-4)Gal(b1-4)GlcNAc(b1-3)Gal(b1-4)Glc
# How it was run: as §1
# Gal(a1-4)GlcNAc = biological target: Gal(a1-4)GlcNAc
# How it was run: as §1
binder,measurement,setting,value
AAL (Aleuria aurantia) (protein) MPTEFLYTSKIAAISWAATGGRQQRVYFQDLNGKIREAQRGGDNPWTGGSSQNVIGEAKLFSPLAAVTWKSAQGIQIRVYCVNKDNILSEFVYDGSKWITGQLGSVGVKVGSNSKLAALQWGGSESAPPNIRVYYQKSNGSGSSIHEYVWSGKWTAGASFGSTVPGTGIGATAIGPGRLRIYYQATDNKIREHCWDSNSWYVGGFSASASAGVSIAAISWGSTPQIRVYWQKGREELYEAAYGGSWNTPGQIKDASRPTPSLPDTFIAANSSGNIDISVFFQASGVSLQQWQWISGKGWSIGAVVPTGTPAGW,glycan array binding signal (z-score),[1],-0.272
same,glycan array binding signal (z-score),[2],1.96
same,glycan array binding signal (z-score),[3],2.66
same,glycan array binding signal (z-score),[4],-0.077
same,glycan array binding signal (z-score),[5],-0.258
same,glycan array binding signal (z-score),[6],0.019
same,glycan array binding signal (z-score),[7],-0.274
same,glycan array binding signal (z-score),[8],-0.018
same,glycan array binding signal (z-score),[9],1.04
same,glycan array binding signal (z-score),[10],0.419
same,glycan array binding signal (z-score),[11],1.36
same,glycan array binding signal (z-score),[12],1.03
same,glycan array binding signal (z-score),Fuc(a1-4)GlcNAc,6.22
same,glycan array binding signal (z-score),Fuc(b1-3)GlcNAc,4.57
same,glycan array binding signal (z-score),Gal(a1-2)Gal,-0.312
same,glycan array binding signal (z-score),Gal(a1-3)Gal,-0.314
same,glycan array binding signal (z-score),Gal(a1-3)Gal(b1-3)GlcNAc,-0.31
same,glycan array binding signal (z-score),[13],-0.312
same,glycan array binding signal (z-score),[14],-0.268
same,glycan array binding signal (z-score),[15],-0.298
same,glycan array binding signal (z-score),[16],-0.314
same,glycan array binding signal (z-score),[17],-0.209
same,glycan array binding signal (z-score),Gal(a1-3)Gal(b1-4)Glc,-0.311
same,glycan array binding signal (z-score),Gal(a1-3)Gal(b1-4)GlcNAc,-0.319
same,glycan array binding signal (z-score),[18],-0.294
same,glycan array binding signal (z-score),[19],-0.29
same,glycan array binding signal (z-score),[20],-0.323
same,glycan array binding signal (z-score),[21],-0.265
same,glycan array binding signal (z-score),[22],0.237
same,glycan array binding signal (z-score),[23],-0.027
same,glycan array binding signal (z-score),Gal(a1-3)GalNAc,-0.317
same,glycan array binding signal (z-score),[24],-0.309
same,glycan array binding signal (z-score),[25],-0.308
same,glycan array binding signal (z-score),Gal(a1-4)Gal(b1-4)Glc,-0.314
same,glycan array binding signal (z-score),Gal(a1-4)Gal(b1-4)GlcNAc,-0.315
same,glycan array binding signal (z-score),[26],-0.259
same,glycan array binding signal (z-score),[27],-0.318
same,glycan array binding signal (z-score),Gal(a1-4)GlcNAc,-0.313
